{
  "source": "paper PMC7819943",
  "about": "“Rice protein-binding microarrays: a tool to detect cis-acting elements near promoter regions in rice”",
  "note": "This is one part of the list.",
  "data": [
    {"target": "T1, OsWOX13 (Oryza sativa, UniProt Q5QMM3 1-267)", "T1 sequence": "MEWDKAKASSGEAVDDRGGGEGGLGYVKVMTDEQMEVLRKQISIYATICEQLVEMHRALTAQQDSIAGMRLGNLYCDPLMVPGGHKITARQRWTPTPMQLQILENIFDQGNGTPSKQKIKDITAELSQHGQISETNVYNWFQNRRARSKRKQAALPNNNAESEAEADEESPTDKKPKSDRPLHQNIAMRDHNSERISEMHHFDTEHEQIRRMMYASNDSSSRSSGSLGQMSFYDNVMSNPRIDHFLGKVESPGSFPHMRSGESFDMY", "assay": "protein-binding microarray (RPBM); PBS, 2% BSA, 51.3 ng/ul salmon testes DNA, 50 uM zinc acetate, 200 nM TF, 25 C, 1 h; high values mean tight binding", "conditions": "protein: recombinant; tags: N-terminal polyhistidine and DsRed monomer fusion (pET32a); label: CyDye5-dUTP incorporated in the synthesized complementary strand; 3' TTTTT single-stranded linker to array surface; dsDNA, one strand shown", "summary_of_the_method": "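For the binding signal, per-feature fluorescence intensity was read in arbitrary units on an Axon 4000B scanner. Before scanning, a 2% BSA-blocked custom Agilent array made double-stranded with Cy5-dUTP was washed after 1 h at 25 °C with 200 nM protein and 50 µM zinc acetate. The proteins were Ni–NTA-purified transcription factors with N-terminal polyhistidine and DsRed fusions, expressed in E. coli BL21-CodonPlus.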", "values": [
      {"sequence": "TCACACACTAATTAATGCCGTACAGAATGCTACGTACAGTCGGAGTCACCTAGTGCAG", "binding signal": "12600 fluorescence intensity (a.u.)"},
      {"sequence": "TGCAAACAACAAACTAATGCGTGATTAACCAAACGAATCACGGAGTCACCTAGTGCAG", "binding signal": "4430 fluorescence intensity (a.u.)"},
      {"sequence": "TAGTTAATCATTACATATTTGGATTGTTCACAAGCTTACCCGGAGTCACCTAGTGCAG", "binding signal": "9620 fluorescence intensity (a.u.)"},
      {"sequence": "CTTACAAAACTAATTACATAAATAAAAGCTAATTCACGAGCGGAGTCACCTAGTGCAG", "binding signal": "7710 ± 469 fluorescence intensity (a.u.)"},
      {"sequence": "AGATCAAATTTATTGGTGTATATTTGTCTGTATCATCCTACGGAGTCACCTAGTGCAG", "binding signal": "4630 fluorescence intensity (a.u.)"},
      {"sequence": "TATATCTGATTTGTATTAGAATTATTTATGATCAAAGTTCCGGAGTCACCTAGTGCAG", "binding signal": "9680 fluorescence intensity (a.u.)"},
      {"sequence": "TCCGATTGGATCAGCTATCCAATTTTGATGGGCCATTCGGCGGAGTCACCTAGTGCAG", "binding signal": "6840 fluorescence intensity (a.u.)"},
      {"sequence": "TCTTAACATCGATTGGTTGATGCATGCATGTACACACTTCCGGAGTCACCTAGTGCAG", "binding signal": "3140 fluorescence intensity (a.u.)"},
      {"sequence": "TTATATTGATGTTAATGAATCTAGACATATCTAGATTCATCGGAGTCACCTAGTGCAG", "binding signal": "14400 fluorescence intensity (a.u.)"},
      {"sequence": "TATTTAACTGGTAATTGGTCATAACCAAAGTACATAGATTCGGAGTCACCTAGTGCAG", "binding signal": "21000 fluorescence intensity (a.u.)"},
      {"sequence": "TAAGTTAATTTTGTTCCGTATGATTACAGTGACGGAATAGCGGAGTCACCTAGTGCAG", "binding signal": "17100 fluorescence intensity (a.u.)"},
      {"sequence": "ACTAGATAGATACCATGAAGAAATATAGTCTCAGAAACCACGGAGTCACCTAGTGCAG", "binding signal": "3570 fluorescence intensity (a.u.)"},
      {"sequence": "AATGTTGAAGATAATGGCAGGACCTAGTAACTGGTGCAAACGGAGTCACCTAGTGCAG", "binding signal": "4820 fluorescence intensity (a.u.)"},
      {"sequence": "TTCATGTAAATTGTAGTGCTAATGAGATGCTCATCTGTTGCGGAGTCACCTAGTGCAG", "binding signal": "4730 fluorescence intensity (a.u.)"},
      {"sequence": "TCTGATAGAATGTAAGCCACTCCATTCCATTCCATCCCATCGGAGTCACCTAGTGCAG", "binding signal": "33000 fluorescence intensity (a.u.)"},
      {"sequence": "TTTCATAATAGATGAAGAATAAATAAGATTGGTAGAGAAGCGGAGTCACCTAGTGCAG", "binding signal": "7440 fluorescence intensity (a.u.)"},
      {"sequence": "GCTAATTTGGGCACCATATTGGGCCTGATTTTGGTAAACACGGAGTCACCTAGTGCAG", "binding signal": "6980 fluorescence intensity (a.u.)"},
      {"sequence": "AGGATGATTAAGAATAAAACATTCGGCCTCGTGGCTATGTCGGAGTCACCTAGTGCAG", "binding signal": "17300 fluorescence intensity (a.u.)"},
      {"sequence": "ATTTGAAAATTGATTTGAGGACAGGGAATAGAGGTAGCATCGGAGTCACCTAGTGCAG", "binding signal": "18800 fluorescence intensity (a.u.)"},
      {"sequence": "ACTTAAACTGTGAATTTGCTGGCAGTGGCTAGAAGCTATTCGGAGTCACCTAGTGCAG", "binding signal": "7540 fluorescence intensity (a.u.)"},
      {"sequence": "AAATTACAAAACTTAAATTGCAATTTTACAAGCTCACACGCGGAGTCACCTAGTGCAG", "binding signal": "7820 fluorescence intensity (a.u.)"},
      {"sequence": "AAATTGAAAACCACTAGTTAATTAGACTAAGCTACTACCTCGGAGTCACCTAGTGCAG", "binding signal": "3580 fluorescence intensity (a.u.)"},
      {"sequence": "TGCTTGCGCGTGTATCTATCAATCAAGGGTTGGTAGCTAGCGGAGTCACCTAGTGCAG", "binding signal": "6620 fluorescence intensity (a.u.)"},
      {"sequence": "CCCCACCAATCACCGCAGCTAGAACTCCCTCCGTCCCGTTCGGAGTCACCTAGTGCAG", "binding signal": "11600 fluorescence intensity (a.u.)"},
      {"sequence": "ACAGCCTTGATTACGACCCCGGGCCCAATTAATCAACCCACGGAGTCACCTAGTGCAG", "binding signal": "17100 fluorescence intensity (a.u.)"},
      {"sequence": "TATTAGATTGATCTCTAAATGTCAGATTAATCTCTCTTGGCGGAGTCACCTAGTGCAG", "binding signal": "34000 fluorescence intensity (a.u.)"},
      {"sequence": "GTAATTATAATAATGAGTTACTGATCGAGAGGAGGAGAGGCGGAGTCACCTAGTGCAG", "binding signal": "7580 fluorescence intensity (a.u.)"},
      {"sequence": "CACAAAATCAAGCTATCAACATTCCTCATCTCGTTGATGCCGGAGTCACCTAGTGCAG", "binding signal": "3680 fluorescence intensity (a.u.)"},
      {"sequence": "AAATTAAAATTAATTTATAAGTAAAACTTTTGTAGATTTGCGGAGTCACCTAGTGCAG", "binding signal": "30300 fluorescence intensity (a.u.)"},
      {"sequence": "TCTGATTGGTACATGCTCACCTGGTTGGCTGGTTCTTCAGCGGAGTCACCTAGTGCAG", "binding signal": "53800 fluorescence intensity (a.u.)"},
      {"sequence": "CAGAAATAAACTAGTTTATTTTCTGGATTAACTATATATTCGGAGTCACCTAGTGCAG", "binding signal": "5890 fluorescence intensity (a.u.)"},
      {"sequence": "GGTCATTTATAAATTAAATTTTAGGCTTGGGAGGAGAACTCGGAGTCACCTAGTGCAG", "binding signal": "14800 fluorescence intensity (a.u.)"},
      {"sequence": "ACTTAATATATTCACTTAACACTACAAAGTCTTGTGGTGTCGGAGTCACCTAGTGCAG", "binding signal": "3610 fluorescence intensity (a.u.)"},
      {"sequence": "ATCTAACTTATATAGAGATTATAACGTAGTTACACTACAGCGGAGTCACCTAGTGCAG", "binding signal": "3550 fluorescence intensity (a.u.)"},
      {"sequence": "ATTATACTGATGGACTATGATATATTACCTTGAGATGAGGCGGAGTCACCTAGTGCAG", "binding signal": "9420 fluorescence intensity (a.u.)"},
      {"sequence": "CTCAAGCCATCACAACTTAATTAAGCAGCAGCATTAGCAGCGGAGTCACCTAGTGCAG", "binding signal": "5540 fluorescence intensity (a.u.)"},
      {"sequence": "TTAGTAAAACAATTAAATAGATATATATCTTTGACAACTTCGGAGTCACCTAGTGCAG", "binding signal": "3710 fluorescence intensity (a.u.)"},
      {"sequence": "GGCTTATAATTTGTTATTATAGCTGCTCTCAGGGGACAGTCGGAGTCACCTAGTGCAG", "binding signal": "12900 fluorescence intensity (a.u.)"},
      {"sequence": "ATTTCTAGAAATTGATAGTTAAAGATAGAAATGTTTTACTCGGAGTCACCTAGTGCAG", "binding signal": "5490 fluorescence intensity (a.u.)"},
      {"sequence": "CATATTGACATGCACATTTGCTTCACGGTCAAGACTTGAGCGGAGTCACCTAGTGCAG", "binding signal": "9690 fluorescence intensity (a.u.)"},
      {"sequence": "AATACTAAATAGTTGAATTGATAAATATGTACAGTTATTGCGGAGTCACCTAGTGCAG", "binding signal": "4330 fluorescence intensity (a.u.)"},
      {"sequence": "TTAAATTATATTAAACGGCATATTTCATGAGAAAATTTATCGGAGTCACCTAGTGCAG", "binding signal": "7900 fluorescence intensity (a.u.)"}
    ]}
  ]
}
